# Laboratory results reported in article PMC12136788.
# The other results are listed elsewhere or left out.
# B1: chr9:37357341:37357442:+|3pUTR|ENSG00000147905|unk|FALSE|unique (ssRNA)
# RNA: GGGAGUUCUACAGUCCGACGAUCAUUAUCUAUGAUUAAAUAAAGUGAGUUUUUGGUUUUGUUUUUUUAAUUUCAGCCAUUCCUAGAGUUACUGAAUAUCCAUGGAGAUCUCAAUUCUCUGUGUCCAACAGGAUAUUAGGUAAGCAACAGAGGAUUGAGCAUCA
# B2: chrX:130230552:130230660:-|CDS|ENSG00000056277|unk|total|mutant (ssRNA)
# RNA: GGGAGUUCUACAGUCCGACGAUCAUCAGAACGUCCAUGUGAUGAAGACAAGACUGAUUCAGAGACAGGAAAGUUGAUCAUGUCCGUCAAUGAGUUUUAUUAUGGAAGGCAUGAAGGAGUCACUGAGAAAGAGCCAAAGACUUACAACAGAGGAUUGAGCAUCA
# B3: chr3:120327094:120327202:-|3pUTR|ENSG00000163428|unk|total|mutant (ssRNA)
# RNA: GGGAGUUCUACAGUCCGACGAUCGAAGAGAAGUCACCAAACACCCCGGGACAGUCCCCGGCCCCGAAAGCCCUUUAAAGUAACCGUGAAUUGUUUUAAAAUUAAGUUAUUGAGUGGCCUACUGACUACCAUCCAAAAACCUUUCAACAGAGGAUUGAGCAUCA
# B4: chr1:150647640:150647741:-|3pUTR|ENSG00000143457|unk|FALSE|unique (ssRNA)
# RNA: GGGAGUUCUACAGUCCGACGAUCAGAUUCAAUUACCUGGAUGUCAAAGUCCUAGAGCCAGAAAUAUAUUCUCUCAUCCCUCUUAGCAUUCUCUUGCUCCCUCAUUCACUAGGGCAAAUGUCUAAAUGAAGAAAAGUCUCUCUCCAACAGAGGAUUGAGCAUCA
# B5: chr1:152579660:152579936:-|CDS|ENSG00000163202|control|control|control (ssRNA)
# RNA: GGGAGUUCUACAGUCCGACGAUCGUACAGUGUCUGCCUCCAGCUUCCUCUGGCUGUGCCCCAAGCUCUGGGGGCUGUGGCCCUAGCUCCGAGGGCGGCUGCUUCCUGAACCACCACAGGCGCCACCACCGAUGCCGGCGCCAGCAACAGAGGAUUGAGCAUCA
# B6: ENSG00000142634:stop:overlap|stop_codon|ENSG00000142634|stop_codon|NA|stop_codon (ssRNA)
# RNA: GGGAGUUCUACAGUCCGACGAUCAGGCGGAGGAGAUGAAGCAGCGGAAAGCGGCCUUCAAGGAGCUGCAGUCCACCUUUAAGUAGCGGGGGCUGCAGCCGACCGCCCUGCUCCGGCCCCAGUGUGGUGGGCGAGGGUGGCGCACAACAGAGGAUUGAGCAUCA
# B7: chr22:35295155:35295256:+|3pUTR|ENSG00000100281|unk|FALSE|unique (ssRNA)
# RNA: GGGAGUUCUACAGUCCGACGAUCUUUCUUCUCCUGGCCCUGACAGAGCACUACAGCAUCAAAGUAAAUCUUUGGGGACAGUGUAGCCCAUCUGCAUCCUAUUUAAUUUCUUCCCUUCUCCCCACCAGUGUUGUCACAGGGCUACAACAGAGGAUUGAGCAUCA
# B8: chr4:138171397:138171528:-|3pUTR|ENSG00000151012|msi1|total|mutant (ssRNA)
# RNA: GGGAGUUCUACAGUCCGACGAUCAUUAUGGCAAAGAGGAGAGAAAGAAAUUUAUUUUACAUUGACAUUGCAUUGCUUCCCCUCCGAUACCAAUUCCGAUAACAAACACUCAUGCUUUAAUGGAUUAUACCCAGAGCACUUUGACAACAGAGGAUUGAGCAUCA
# B9: chr16:2602459:2602560:+|3pUTR|ENSG00000140992|msi1|FALSE|bound_elsewhere (ssRNA)
# RNA: GGGAGUUCUACAGUCCGACGAUCAACUAUGUACAGAGAACUUUUUACAAAAGGCAGACCUUUUUUAAGCUGUGUAACCCACAUAGCCUAACCACCUGGCAGAAUGACUACGAAUAGGGGUCAUUGUGCUGGUAAAAGCCUCUACAACAGAGGAUUGAGCAUCA
# B10: chr14:44924370:44924471:-|3pUTR|ENSG00000179454|unk|FALSE|unique (ssRNA)
# RNA: GGGAGUUCUACAGUCCGACGAUCACCUUUUUAGCAUCAGGGUUUUAUUUUAUUUAUGUUUACACACUAAAGUGUCAUUUAACUAGUUAAGAAUUGUAUUCUUUUUUAUUUUAAAGGUUAUUUGUGUGUAUCAUUGUGGUAAUGCAACAGAGGAUUGAGCAUCA
# B11: chr17:35724233:35724342:+|3pUTR|ENSG00000006125|msi1_unk|FALSE|overlapping (ssRNA)
# RNA: GGGAGUUCUACAGUCCGACGAUCUCCUGGAGGCAGAGAUGCAGUUACCUACCCUAGCUUUUGAUGGGUUCUCUUACCUGUAGUAGCCUUAUCCCUGGUCAUUUGGAUUUUCAGUUUGCUUUUUUCUUUUUUUCCCCUCCAAACCAACAGAGGAUUGAGCAUCA
# B12: ENSG00000170312:stop:overlap|stop_codon|ENSG00000170312|stop_codon|NA|stop_codon (ssRNA)
# RNA: GGGAGUUCUACAGUCCGACGAUCGCAAAAUGGCACUGAAUCAUCCAUAUUUUAAUGAUUUGGACAAUCAGAUUAAGAAGAUGUAGCUUUCUGACAAAAAGUUUCCAUAUGUUAUAUCAACAGAUAGUUGUGUUUUUAUUGUUACAACAGAGGAUUGAGCAUCA
# B13: chr12:13219749:13219850:+|3pUTR|ENSG00000134531|unk|FALSE|unique (ssRNA)
# RNA: GGGAGUUCUACAGUCCGACGAUCACAACAGUGGAUGGGGAGGAAGAACAGACUUUUGAGCUCUUCCCAAUAUAGGAAUGUGUUAGUUCUAAAAAUUUUCUUAAGUUGUUUGCUUGGAACUCAGAGUAUAUUUUUCCAUACGAACAACAGAGGAUUGAGCAUCA
# B14: chr1:6224442:6224573:-|3pUTR|ENSG00000116237|msi1_unk|FALSE|overlapping (ssRNA)
# RNA: GGGAGUUCUACAGUCCGACGAUCCUAUACAAUUUUAAAAAUACUUCCUCAUAGGAUGCUUUGGCCCUUCAUCUAUUUAAUCAUAGCUACAUACCUAUUUUUUAUAAGUAGCAGUACACAUUCAAAGGGGUAUUCCUAGCUCAACAACAGAGGAUUGAGCAUCA
# B15: ENSG00000157823:stop:overlap|stop_codon|ENSG00000157823|stop_codon|NA|stop_codon (ssRNA)
# RNA: GGGAGUUCUACAGUCCGACGAUCUCCGCUUCUACCAGCGUUUCAAGAAAUUCAACAGCAGAUUGUUCGAGAGACUUUCCAUCUAGUCCUCAAGCGGGAUGACAACAUCUGUAACUUCUUGGAGGGUGGAAGUUUGAUUGGUGGCAACAGAGGAUUGAGCAUCA
# B16: chr9:116187394:116187495:+|CDS|ENSG00000182752|msi1|FALSE|unique (ssRNA)
# RNA: GGGAGUUCUACAGUCCGACGAUCUGGGGAACAAGUGGGUGGCAUAUUCAGCCCACUGACCCAGAAGUGCAAAGUGCUCAUGUUAGGGGGCAGUGCCCUGAAUCACAACUACCGGGGCUACAUCGAGCACUUCAGUCUGUGGAACAACAGAGGAUUGAGCAUCA
# B17: chr19:10391132:10391550:-|three_prime_utr|ENSG00000105401|control|control|control (ssRNA)
# RNA: GGGAGUUCUACAGUCCGACGAUCCCCCAGCUACCACCGCCACCUGCUUCCAGGCCCCUAUGUGCCCCUUUUCAGAAAACAGAUAGAUGCCAUCUCGCCCGCUCCUGACUUCCUCUACUUGCGCUGCUCGGCCCAGCCUGGGGGCAACAGAGGAUUGAGCAUCA
# B18: chr2:235053981:235054083:+|3pUTR|ENSG00000130147|unk|FALSE|unique (ssRNA)
# RNA: GGGAGUUCUACAGUCCGACGAUCCUCCUCCAUCGAGGGAGAGGCCUGAAGGGACUGCCUACUGCAGCUCGUUGCCAAUCACAUAGCUUUCUAUUUGUUAAGUAUAAAUUUAAAUUUAAAAUCACUUUUUUAACGAAUGGGGGGCAACAGAGGAUUGAGCAUCA
# B19: chr1:212686416:212686790:-|three_prime_utr|ENSG00000123685|control|control|control (ssRNA)
# RNA: GGGAGUUCUACAGUCCGACGAUCUUGUGCAGAUCCAGCAUGGAGGCCACCCUCAGGAGUGACUUCUCAUCCACCCUGGCAGCUAGUAGGUUCUGCUGUUAUGCAGAGCCAUUUCCUCUAGAAUUUGGAUAAUAAAGAUGCUUACAACAGAGGAUUGAGCAUCA
# B20: chr16:2457226:2457327:+|3pUTR|ENSG00000162063|unk|total|mutant (ssRNA)
# RNA: GGGAGUUCUACAGUCCGACGAUCCAAGCCAUCAGAAUGUUGAAAUGAGGGUGAAGAGCUCAGAUCCCUCUCUUUGGAAAGUUCCGCCUGGAAGCAGUUGGCCACACUGUGUGGAGGGCACCUCUCUGUCCCUUCCGUGUCUCACAACAGAGGAUUGAGCAUCA
# B21: ENSG00000204186:stop:overlap|stop_codon|ENSG00000204186|stop_codon|NA|stop_codon (ssRNA)
# RNA: GGGAGUUCUACAGUCCGACGAUCAACAACGUGAGAGAAUGAUGACUCGGCUAGCAAACAAACUGAGAGGUAAUGAGGUAAAAUAGAAGUUGGUUUUGUGUUCAGGCUAGUUGAGGAUUCAGUACUUCAGUUGAAAUAUAUUUGCAACAGAGGAUUGAGCAUCA
# B22: chr11:75587191:75587292:-|CDS|ENSG00000171533|unk|FALSE|unique (ssRNA)
# RNA: GGGAGUUCUACAGUCCGACGAUCACAGCCUCCAAAGAAUCAAGGUCGUAUAGUCCCUGAACCUCUGAAGAAUCAAGUUCCUAUAGUCCCAGUGCCUCUGAAGGAUCAAGAUCCUCUGGUGCCAGUACCAGCAAAGGACCAAGGCAACAGAGGAUUGAGCAUCA
# Biological target: MSI1 full-length (mouse, UniProt Q61474 1-362)
# Test: nsRBNS (natural sequence RNA bind-n-seq); RBNS binding buffer (assumed for nsRBNS): 25 mM Tris pH 7.5, 150 mM KCl, 3 mM MgCl2, 0.01% Triton X-100, 500 ug/ml BSA, 20 U/ml SUPERase-In, 4 C; UNK is unkempt and MSI1 is Musashi-1; names of the RNAs are library labels; protein concentration not given here; high values mean tight binding
# Chain of UniProt Q61474 (Q61474 whole entry): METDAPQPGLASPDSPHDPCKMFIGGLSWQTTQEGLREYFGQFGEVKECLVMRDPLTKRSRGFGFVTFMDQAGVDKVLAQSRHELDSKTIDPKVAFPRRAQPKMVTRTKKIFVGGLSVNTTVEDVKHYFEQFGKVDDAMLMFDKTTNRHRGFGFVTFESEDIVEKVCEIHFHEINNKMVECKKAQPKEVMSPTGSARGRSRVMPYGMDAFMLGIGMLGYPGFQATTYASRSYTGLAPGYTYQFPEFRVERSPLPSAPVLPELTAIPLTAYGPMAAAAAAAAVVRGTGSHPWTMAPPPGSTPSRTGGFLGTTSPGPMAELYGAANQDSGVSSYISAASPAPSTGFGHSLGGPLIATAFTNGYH
row,Binder,binding signal
1,B1,0.98 enrichment R
2,B2,0.399 enrichment R
3,B3,0.474 enrichment R
4,B4,0.58 enrichment R
5,B5,0.609 enrichment R
6,B6,1.82 enrichment R
7,B7,0.894 enrichment R
8,B8,0.495 enrichment R
9,B9,0.46 enrichment R
10,B10,1.2 enrichment R
11,B11,1.07 enrichment R
12,B12,0.414 enrichment R
13,B13,6.85 enrichment R
14,B14,7.66 enrichment R
15,B15,0.348 enrichment R
16,B16,0.448 enrichment R
17,B17,1.18 enrichment R
18,B18,1.21 enrichment R
19,B19,0.405 enrichment R
20,B20,0.345 enrichment R
21,B21,9.87 enrichment R
22,B22,0.45 enrichment R
